Test results: PubChem BioAssay AID1347417 (National Center for Advancing Translational Sciences (NCATS), 2020)
In all, about 120,000 compounds went through this assay and about 5,300 (4.4%) were called active. This list was built around the results that the source calls inconclusive (neither active nor inactive); the mix of calls is not that of the screen. Calls come from the whole dose curve; as a rule, active = well fitted inhibition curve with a large enough effect; inconclusive = small, poorly fitted or top-dose-only effect; inactive = no such curve, though single readings can be large or run the other way. Where the call is inconclusive, the potency comes from a doubtful curve fit.
Potency is the fitted concentration of half-maximal effect; tags give direction and shape of the fitted curve.

Assay: qHTS Primary assay for Inhibitors of Plasmodium falciparum Dd2 growth in vitro; note: nearly all actives have a fitted effect of over 65% in size;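 for activity, negative = inhibition: plate controls were DMSO vehicle for no effect and reference drug for full effect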
Details: P. falciparum Dd2 growth, SYBR Green, 72 h; activity, negative = inhibition: at 28.9 µM (top of the series) unless noted; series mostly up to 28.9 µM
Outline: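 Infected erythrocytes (Dd2, 0.3% parasitemia, 2.5% hematocrit final) are added to compound in RPMI-1640/Albumax II medium, grown 72 h at 37C in low oxygen, then lysed with saponin/Triton-X containing SYBR Green and read by fluorescence.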
With `O=C(CC[C@H]1NC(=O)c2ccccc2NC1=O)NCCn1ccc2c(Cl)cccc21` the Potency was inconclusive: 17.8 µM [inhibitor, single point]. In the case of `CC1CCCCN1C(=O)CSc1nc2ccccc2nc1Cc1ccccc1` (stereo not drawn), the Potency is reported as inconclusive: 17.8 µM [inhibitor, single point]. With `COCC(=O)NC1CCC12CCN(S(=O)(=O)c1cccc3cccnc13)CC2` (stereo not drawn) the “activity, negative = inhibition” value was inactive: -6.75%. In the case of `O=c1cc(-c2ccccn2)oc2c(NCc3ccc(F)cc3)nccc12`, the Potency is reported as inconclusive: 15.8 µM [inhibitor, partial curve, poor fit]. In the case of `O=C(c1ccc(Cl)cc1)N1CC2(CCN(Cc3cccnc3)C2)Cc2ccccc21` (stereo not drawn), the Potency is reported as active: 8.91 µM. In the case of `COc1ccc(-c2cc(C[C@H]3CNCC[C@H]3CC(=O)N3CCOCC3)no2)cc1`, the “activity, negative = inhibition” value is reported as inactive: 8.66% [at 44.1 µM]. For `Cc1nc(N2CCOCC2)c2c(C(=O)N3CCN(c4cc(Cl)ccc4C)CC3)c(C)oc2n1`, the Potency was inconclusive: 11.2 µM [inhibitor, single point]. With `O=S(=O)(c1cccs1)N1CC(c2nc(-c3ccncc3)no2)C1` the “activity, negative = inhibition” value was inactive: -10.3%. With `CCN1CCc2[nH]cnc2C12CCN(C(=O)c1cccc3nccnc13)CC2` the “activity, negative = inhibition” value was inactive: -6.26%. With `CN(C)C(C(=O)NCc1noc(Cc2ccccc2)n1)c1ccc(F)cc1` (stereo not drawn) the Potency was inconclusive: 10 µM [inhibitor, single point]. With `O=C(NCc1cccc(F)c1)c1cnc2c(c1)N(C(=O)Cc1ccc(O)cc1)CCC2` the Potency was inconclusive: 35.5 µM [inhibitor, single point]. With `COc1ccc(C(=O)N2CCCC(c3noc(COc4ccccc4F)n3)C2)cc1` (stereo not drawn) the Potency was inconclusive: 5.62 µM [inhibitor, partial curve, poor fit]. With `CCCC(=O)N1CCC(Oc2ccc3c(cnn3CCC(=O)O)c2)CC1` the “outcome” value was “inactive [at 44.1 µM]”. In the case of `O=C1NCc2ccccc2CC12CCN(Cc1ccsc1)CC2`, the “activity, negative = inhibition” value is reported as inactive: -26.6%. For `Cc1c(Cl)cccc1NC(=O)CN1C(=O)C(C)N=C(c2ccccc2)c2ccccc21` (stereo not drawn), the Potency was inconclusive: 17.8 µM [inhibitor, single point]. With `COc1cc(NC(=O)Cn2c(=O)n(Cc3ccccc3)c(=O)c3oc4ccccc4c32)cc(OC)c1` the Potency was inconclusive: 10 µM [inhibitor, single point]. With `CCS(=O)(=O)Nc1ccc(C(=O)NCc2cc3n(n2)CCNC3)cc1` the “activity, negative = inhibition” value was inactive: 0.382%. For `COc1ccc(CNC(=O)c2ccc3c(c2)N=C(C)c2c(C)ccc(C)c2S3)cc1`, the Potency was inconclusive: 12.6 µM [inhibitor, partial curve, poor fit]. With `c1ccc(OCC2CN(Cc3ccncc3)CC23CN(c2ccccc2)C3)cc1` (stereo not drawn) the Potency was inconclusive: 3.16 µM [inhibitor, single point]. In the case of `CNC(=O)c1nnn2cc(C)[nH]c(=O)c12`, the “activity, negative = inhibition” value is reported as inactive: 53.4%. For `COc1ccccc1N1CCN(CCCNC(=O)c2cnn(-c3ccccc3Cl)c2C2CCN(C(=O)OC(C)(C)C)CC2)CC1`, the Potency was active: 1.41 µM. For `CC(=O)N1CCc2nc(-c3ccccc3)nc(-c3ccc(Cl)cc3)c2C1`, the “activity, negative = inhibition” value was inactive: -22.5%. In the case of `Cc1ccc(NC(=O)Cn2ccn3nc(-c4ccccc4)c(CO)c3c2=O)cc1Cl`, the “activity, negative = inhibition” value is reported as inactive: 2.78%. For `CN1CCCN(C(=O)[C@H]2C[C@@](C)(C(=O)O)N(C)[C@H]2c2ccccc2Cl)CC1`, the “activity, negative = inhibition” value was inactive: -0.262%. With `O=C(COc1ccc(Cl)cc1)N1CCC[C@H]1c1nc(-c2ccc(F)cc2)no1` the “activity, negative = inhibition” value was inactive: -24.1%. With `CCOc1ccccc1C(=O)NC1CCN(c2cc(-c3ccccc3)[nH]n2)C1` (stereo not drawn) the Potency was inconclusive: 1.26 µM [inhibitor, partial curve, poor fit]. For `FC(F)(F)c1ccc(-c2noc([C@@H]3Cc4nc[nH]c4CN3Cc3cc4ccccc4o3)n2)cc1`, the Potency was active: 8.91 µM. For `Cc1ccc(C(=O)N2CCC(Oc3ncccc3C(=O)N3CCCCC3)C2)cc1C` (stereo not drawn), the Potency was inconclusive: 6.31 µM [inhibitor, partial curve, poor fit]. With `COc1cccc(C(O)c2nc(C(=O)NCc3ccccc3)c(C)o2)c1` (stereo not drawn) the Potency was inconclusive: 31.6 µM [inhibitor, partial curve, poor fit]. With `COc1ccc(C(=O)N2CCCC3(CC(c4ccccn4)=NO3)C2)cc1` (stereo not drawn) the “activity, negative = inhibition” value was inactive: 8.53%. For `COc1ccc(NC(=O)c2nnn3cc(C)[nH]c(=O)c23)cc1OC`, the “activity, negative = inhibition” value was inactive: -16.5%. With `CC1CCN(CC(=O)N2CCCc3c2c(=O)oc2ccc(OCc4ccccc4)cc32)CC1` the Potency was inconclusive: 17.8 µM [inhibitor, single point]. For `CCn1cc(S(=O)(=O)N2CCC3(CC2)CC(N2CCOCC2)CCO3)cn1` (stereo not drawn), the Potency was inconclusive: 2.51 µM [inhibitor, full curve, poor fit]. With `COc1ccc(-c2[nH]nc3ncc(-c4ccccc4OC)nc23)c(C)c1` the Potency was inconclusive: 14.1 µM [inhibitor, partial curve, poor fit]. With `COc1ccc2[nH]cc(CCNC(=O)C3Cn4cccc4C(=O)N3CC(C)C)c2c1` (stereo not drawn) the “outcome” value was “inactive”. For `COc1cccc(-c2cn3c(n2)N(C(=O)C2CCCO2)CCC3)c1` (stereo not drawn), the “activity, negative = inhibition” value was inactive: -16.6%. With `CCOc1cccc2sc(N(Cc3cccnc3)C(=O)c3ccco3)nc12` the Potency was inconclusive: 17.8 µM [inhibitor, single point]. With `COc1cc(OC)c(NC(=O)Nc2nnc(N(C)C3CCCCC3)s2)cc1Cl` the Potency was inconclusive: 14.1 µM [inhibitor, partial curve]. For `Cc1nc2c(s1)C[C@@H]1[C@](C)(CO)[C@H](O)CC[C@@]1(C)[C@@H]2CC(=O)Nc1ccccc1`, the Potency was inconclusive: 12.6 µM [inhibitor, single point]. In the case of `Cc1nc2ccc(S(=O)(=O)NC(C(=O)NCc3ccccc3Cl)C(C)C)cc2s1` (stereo not drawn), the Potency is reported as inconclusive: 10 µM [inhibitor, single point]. With `O=C1NCCCCCCN(Cc2ccncc2)[C@@H]2CN(S(=O)(=O)c3cccc(F)c3)CC[C@@H]12` the Potency was inconclusive: 17.8 µM [inhibitor, single point]. For `Cc1ccccc1CN1Cc2nc(NCc3cccc(F)c3)ccc2OCC1=O`, the Potency was inconclusive: 31.6 µM [inhibitor, single point]. For `FC(F)(F)c1cccc(-c2noc(-c3ccc(NCCN4CCOCC4)nc3)n2)c1`, the Potency was inconclusive: 10 µM [inhibitor, single point].
